From PubChem BioAssay AID1468 (National Center for Advancing Translational Sciences (NCATS), 2008)
Among all 280,000 compounds or so, about 1,100 (0.39%) were called active. The inconclusive results got no clear call from the source; some entries with a clear call stand among them for comparison. The call rests on the fitted dose curve; in most records, active means well fitted inhibition curve with a large enough effect; inconclusive means small, poorly fitted or top-dose-only effect, or effect the other way; inactive means flat fitted curve, though single readings scatter. No potency is given beside an inconclusive call; the fits are too rough.

Each molecule was assayed against Microtubule-associated protein tau (Homo sapiens) (UniProt P10636) (assay: qHTS for Inhibitors of Tau Fibril Formation, Fluorescence Polarization). Conditions: K18 P301L tau heparin fibrillization, Alexa594 FP, 6 h; series mostly up to 57.7 µM; activity, negative = inhibition: at the top concentration.
How it was run: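 Compound effects on tau fibrillization are measured by Alexa 594 fluorescence polarization (ex 555, em 632 nm). K18 P301L tau is used at 15 uM with 0.24 uM labeled tracer, and 20 uM heparin induces aggregation over 6 hr at 37 C.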
Further: nearly all actives have a fitted effect of over 55% in size.
On the % scale 0 is the no-effect control and ±100 the full control effect; potency means the concentration at half of the fitted maximal effect; tags describe the fitted curve by direction and shape.

Sequence of UniProt P10636 (P10636 whole entry, looked up): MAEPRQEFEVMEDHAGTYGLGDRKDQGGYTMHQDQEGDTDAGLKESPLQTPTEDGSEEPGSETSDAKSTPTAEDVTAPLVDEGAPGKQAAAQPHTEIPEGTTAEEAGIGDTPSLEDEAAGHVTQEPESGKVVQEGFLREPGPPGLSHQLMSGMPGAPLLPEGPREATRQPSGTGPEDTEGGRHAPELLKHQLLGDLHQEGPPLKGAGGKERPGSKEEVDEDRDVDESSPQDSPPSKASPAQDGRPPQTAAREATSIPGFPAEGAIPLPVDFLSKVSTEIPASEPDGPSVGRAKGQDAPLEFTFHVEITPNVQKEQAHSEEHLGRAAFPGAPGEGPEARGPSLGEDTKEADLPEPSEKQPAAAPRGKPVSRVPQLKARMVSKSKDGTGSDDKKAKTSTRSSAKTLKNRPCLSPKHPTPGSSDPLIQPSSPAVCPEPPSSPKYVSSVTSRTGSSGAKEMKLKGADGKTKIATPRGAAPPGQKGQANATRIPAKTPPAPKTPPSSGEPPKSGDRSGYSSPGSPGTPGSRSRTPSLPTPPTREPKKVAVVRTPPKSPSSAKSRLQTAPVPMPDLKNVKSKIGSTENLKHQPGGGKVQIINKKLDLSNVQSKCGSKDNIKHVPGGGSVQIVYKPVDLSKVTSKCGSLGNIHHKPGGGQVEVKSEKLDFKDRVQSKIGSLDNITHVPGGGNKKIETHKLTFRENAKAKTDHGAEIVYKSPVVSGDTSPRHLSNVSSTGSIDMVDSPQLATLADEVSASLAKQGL

| SMILES | activity, negative = inhibition | Potency |
| --- | --- | --- |
| COc1ccc(C)cc1NC(=O)Nc1ccccc1 | inactive: -1.25% | – |
| CCOc1ccccc1NC(=S)/C(=C(\[O-])c1ccc2c(c1)OCCO2)[n+]1ccc(CC)cc1 | – | inconclusive [inhibitor, single point] |
| COc1ccc(C(=O)COC(=O)CCc2ccccc2)cc1 | inactive: -3.66% | – |
| COc1ccc(CCn2c(C)cc(C(=O)CCl)c2C)cc1OC | inactive: 0.615% | – |
| Cc1oc2c(c1C(=O)c1ccccc1)C(=O)C(=O)c1ccccc1-2 | – | inconclusive [inhibitor, full curve] |
| COc1cc2c(cc1NC(=O)C(C)Oc1ccccc1)oc1ccccc12 (stereo unspecified) | – | inconclusive [inhibitor, full curve] |
| c1ccc2[nH]c(CSc3nnc(-c4ccncc4)o3)nc2c1 | inactive: -6.56% | – |
| COc1ccc(NCc2cc3cc4c(cc3n(CC(=O)Nc3ccc(F)cc3)c2=O)OCCO4)cc1 | – | inconclusive [activator, partial curve] |
| O=C(O)CCC(=O)CCC(=O)c1ccc(Cl)cc1 | inactive: -9.94% | – |
| c1ccc(-c2nc3nc4ccccc4nc3n2CC2CCCO2)cc1 (stereo unspecified) | – | inconclusive [inhibitor, single point] |
| CCCCCC(O)/C=C/C=O (stereo unspecified) | – | inconclusive [inhibitor, single point] |
| CCC1CCCCN1Cc1ccc(OC)c(OC)c1 (stereo unspecified) | inactive: 4.9% | – |
| O=S(=O)(Nc1ccc(N2CCOCC2)cc1)c1ccc(F)cc1 | inactive: -1.99% | – |
| C=CCn1c(SCC(=O)NCCC2=CCCCC2)nc2ccc(Cl)cc2c1=O | inactive: -2.27% | – |
| N=C1S/C(=C\c2cn[nH]c2-c2ccc(F)cc2)C(=O)N1c1ccccc1F | – | inconclusive [inhibitor, full curve] |
| COc1cccc(CNC(=O)CCn2nc(C)c3c(C)n(-c4ccccc4)nc3c2=O)c1 | inactive: -4.27% | – |
| CN(c1ccccc1)S(=O)(=O)c1nnc(NC(=O)C2CCCCC2)s1 | – | inconclusive [inhibitor, partial curve] |
| N#Cc1c(NC(=O)c2ccccc2Cl)n(Cc2ccccc2)c2nc3ccccc3nc12 | – | inconclusive [inhibitor, partial curve] |
| COc1ccc2nc(N3CCC(O)CC3)c(C#N)cc2c1 | inactive: -1.76% | – |
| Cc1cc(C(F)F)n2nc(C(=O)Nc3cccc(Cl)c3C)nc2n1 | inactive: 7.86% | – |
| CCCc1[nH][nH]c(=O)c1C(c1cccc(Cl)c1)C(C#N)C#N (stereo unspecified) | – | inconclusive [inhibitor, full curve, poor fit] |
| COC(=O)c1ccc(C(/C=C/[C@@H](C)C(=O)NCCc2c[nH]c3ccccc23)NC(=O)OCc2ccccc2)cc1 (stereo partly specified) | – | inconclusive [activator, full curve, poor fit] |
| CCOc1ccc(Nc2nc3c(S(=O)(=O)c4cccc(Cl)c4)nnn3c3ccsc23)cc1 | – | inconclusive [inhibitor, partial curve] |

| SMILES | activity, negative = inhibition | Potency |
| --- | --- | --- |
| COc1ccc(NC2=C(C(C)=O)C(c3ccc(N(C)C)cc3)C(C(C)=O)C(C)(O)C2)cc1 (stereo unspecified) | inactive: 5.39% | – |
| CC1=C(C(=O)Nc2ccccc2)C(c2ccc(C(=O)O)cc2)n2ncnc2N1 (stereo unspecified) | inactive: -5.01% | – |
| NC(=S)Nc1nc2ccccc2s1 | – | inconclusive [inhibitor, single point] |
| CCc1ccc(OCC(=O)N(Cc2ccco2)Cc2ccccc2Cl)cc1 | – | inconclusive [inhibitor, full curve, poor fit] |
| Cc1cc(C)c2oc(C(=O)Nc3ccc(S(=O)(=O)N4CCCC(C)C4)cc3)cc(=O)c2c1 (stereo unspecified) | – | inconclusive [inhibitor, partial curve] |
| NC(=O)NCC(N)C(=O)O (stereo unspecified) | inactive: -1.69% | – |
| Cn1ncc(Cl)c1C(=O)Nc1cccc(Cl)c1 | – | inconclusive [inhibitor, partial curve] |
| COc1ccc(NC(=O)c2cc3c(s2)CCC3)cc1S(=O)(=O)N1CCOCC1 | – | inconclusive [activator, single point] |
| COC(=O)c1ccc(Nc2cc(C)nc(-c3ccccc3O)n2)cc1 | – | inconclusive [inhibitor, partial curve] |
| Cc1ccc(NC(=O)c2oc3ccc(S(=O)(=O)N4CCCCC4)cc3c2C)cc1Cl | – | inconclusive [inhibitor, partial curve, poor fit] |
| Cc1ccc(-n2c(=O)c3c4c(sc3n(Cc3ccccc3C)c2=O)CCC4)cc1C | inactive: 2.78% | – |
| COC(=O)c1ccc(NC(=O)c2c(C(=O)Nc3ccccc3)sc3nc(C)cc(=O)n23)cc1 | – | inconclusive [inhibitor, partial curve] |
| O=C(Nc1cccc(Cl)c1)OCc1cnc(Cl)s1 | – | inconclusive [inhibitor, single point] |
| CCc1cc2cc3c(cc2nc1SCC(=O)N1CCN(C(=O)c2ccco2)CC1)OCO3 | inactive: -2.68% | – |
| CCOc1ccccc1C1C(C#N)=C(N)Oc2cc(N)ccc21 (stereo unspecified) | – | inconclusive [activator, single point] |
| O=C(c1ccc(S(=O)(=O)c2cccc(Cl)c2)c([N+](=O)[O-])c1)N1CCN(Cc2ccccc2)CC1 | – | inconclusive [activator, partial curve, poor fit] |
| CCc1ccc(-c2csc(NC(=O)Oc3ccccc3)n2)cc1 | – | inconclusive [activator, single point] |
| COc1ccc(NC(=O)C2=CC(c3ccc4c(c3)OCO4)=NS(=O)(=O)N2C)cc1 | – | inconclusive [inhibitor, single point] |
| CCc1nnc(SCC(=O)Nc2ccc(C(C)=O)cc2)nc1CC | – | inconclusive [activator, single point] |
| COC(=O)c1cccc(NC(=O)c2cnoc2C)c1 | inactive: -6.38% | – |
| Cn1c(O)c(/C=C2\C=NN=C2c2ccccc2)sc1=S | – | inconclusive [inhibitor, single point] |
| O=C(/C=C/c1ccc2c(c1)OCO2)Nc1nc2ccc(F)cc2s1 | – | inconclusive [inhibitor, partial curve] |
| Cn1cnnc1SCC(=O)Nc1ccc2nc(SCc3ccccc3Cl)sc2c1 | – | inconclusive [inhibitor, single point] |
